Each structure is given as a SMILES string. Over roughly 110,000 compounds, “z-score” has its median near -0.1; the highest 2% begin near 2. The list shows a part of the results. Calls of active or inactive are those of the source.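 Rule for the calls: active = z-score in the third read window above 3 or below -3; inactive = the rest.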

The experiment has as its target Metabotropic glutamate receptor 8 (Rattus norvegicus) (UniProt P70579). As to the kind of experiment: mGluR8 Gi/Go-coupled signaling modulation – cell-based, rat, thallium flux, HTS, primary screen (AID 488969). Conditions: HEK293 rat mGluR8, GIRK (G protein-gated inwardly rectifying potassium channel) thallium flux, FluoZin2; at 10 µM; stronger effect = higher value; submaximal glutamate (EC20) added with thallium.
Chain of UniProt P70579 (P70579 whole entry, looked up): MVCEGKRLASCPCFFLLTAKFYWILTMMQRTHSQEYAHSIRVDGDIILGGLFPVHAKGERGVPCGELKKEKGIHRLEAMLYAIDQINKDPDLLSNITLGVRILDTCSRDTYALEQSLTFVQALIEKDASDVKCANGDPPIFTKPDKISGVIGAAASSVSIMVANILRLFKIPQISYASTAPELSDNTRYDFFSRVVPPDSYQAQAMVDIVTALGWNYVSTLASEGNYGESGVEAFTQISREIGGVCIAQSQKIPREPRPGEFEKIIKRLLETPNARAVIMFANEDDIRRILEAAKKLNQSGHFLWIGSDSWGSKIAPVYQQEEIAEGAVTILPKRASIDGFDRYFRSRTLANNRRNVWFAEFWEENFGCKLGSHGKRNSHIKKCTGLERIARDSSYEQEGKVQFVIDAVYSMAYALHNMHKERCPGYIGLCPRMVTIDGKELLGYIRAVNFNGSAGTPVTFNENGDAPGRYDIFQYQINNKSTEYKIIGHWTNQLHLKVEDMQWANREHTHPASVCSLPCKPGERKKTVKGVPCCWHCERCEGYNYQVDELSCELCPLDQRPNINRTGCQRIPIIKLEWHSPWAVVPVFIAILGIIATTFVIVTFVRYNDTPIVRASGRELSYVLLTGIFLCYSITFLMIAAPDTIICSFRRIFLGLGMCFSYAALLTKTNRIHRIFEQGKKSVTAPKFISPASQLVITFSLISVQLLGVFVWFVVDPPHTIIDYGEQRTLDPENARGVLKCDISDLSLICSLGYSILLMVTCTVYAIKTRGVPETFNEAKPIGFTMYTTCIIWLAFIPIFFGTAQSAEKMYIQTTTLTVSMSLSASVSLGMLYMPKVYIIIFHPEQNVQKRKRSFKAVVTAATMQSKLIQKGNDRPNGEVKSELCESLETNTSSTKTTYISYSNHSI
As for `COc1ccc2nc(SCC(C)=O)c(C#N)cc2c1`, the z-score is -0.351.

Consider `CCc1nc2n[nH]c(N)c2c2c1CSC(C)(C)C2`, for which the z-score is -0.133.

On to `CCCCN(Cc1ccccc1)S(=O)(=O)c1cc(Br)cc2c1N(C(C)=O)C(C)C2` (stereo not given), for which the z-score was 2.82.

Consider `Cc1ccc2nc(-c3ccccc3)cc(C(=O)NCCCn3ccnc3)c2c1`, for which the z-score is -0.0532.

For the compound `Cn1c(Oc2ccc3c(c2)OCO3)nc2c1c(=O)n(Cc1ccccc1)c(=O)n2C`, the z-score came to 0.00536.

As for `COc1cc2c(cc1Cl)/C(=C\CCN(C)C)c1ccccc1S2`, the z-score is -0.852.

With `CC1=C(OC(=O)c2ccccc2)C(C)(C)C(c2ccc(Br)cc2)OC1=O` (stereo not given), the z-score was -0.0965.

As for `CCOC(=O)c1ccc2nc(C)c3c(c2c1)OC(C)C3` (stereo not given), the z-score is -0.139.

In the case of `O=C(Nc1cn(-c2ccccc2)nc1-c1ccc(Cl)cc1)c1ccccc1`, the z-score amounted to 0.0198.

Regarding `COCCN(CCOC)C(=O)c1c[nH]c2ccc(S(=O)(=O)N(C)c3ccc(F)cc3)cc2c1=O`, the z-score was -0.262.

For the compound `O=C(Nc1ccccc1)c1cc(S(=O)(=O)N2CCSCC2)ccc1Cl`, the z-score is -0.136.

Consider `O=C(COC(=O)c1ccc2c(c1)OCCO2)Nc1cc(Cl)ccc1Cl`, for which the z-score was -0.0938.

Compound `CCCc1noc2c1/C(=N\O)CC(CC(C)SCC)C2` (stereo not given) gave a z-score of 1.33.

Take `CCCCn1c(SCC(=O)c2ccc(O)c(O)c2)nc2ccsc2c1=O`: the z-score is -0.525.

`CNc1c([N+](=O)[O-])cnn1-c1ccccc1Cl` displayed a z-score of 0.041.

In the case of `CC1=Nc2ccccc2N=C(NC(=O)CSc2nnnn2-c2ccccc2)C1c1ccccc1` (stereo not given), the z-score is 1.13.

For the compound `COc1cc2c(cc1OC)-c1cc(NCc3ccccn3)nc(=O)n1CC2`, the z-score is -0.287.

On to `Cc1ccc(N2C(S)=C(C#N)C(=O)NC2c2cccs2)cc1` (stereo not given), for which the z-score was -0.463.

In the case of `COc1cc(C(=O)NCc2nnc(SCC(=O)N3CCC(C)CC3)o2)cc(OC)c1OC`, the z-score is -0.273.

As for `CCCc1cc(=O)oc2c(C)c(OS(C)(=O)=O)ccc12`, the z-score was -0.0283.

On to `CN1CCN(C2CC(=O)N(c3ccc4c(c3)OCCO4)C2=O)CC1` (stereo not given), for which the z-score was found to be 0.0626.

As to `Fc1ccc(-c2cc3nc(-c4ccccc4)cc(N4CCOCC4)n3n2)cc1`, the z-score was -0.31.

`COC(=O)COc1ccc(S(=O)(=O)Nc2ccc(C(N)=O)cc2)cc1`: the z-score is -0.116.

With `CCN(CC)CC(=O)c1c[nH]c2ccc(OC)cc12`, the z-score is -0.172.

For the compound `CCc1ccc(-n2c(SCC(=O)Nc3cccc(S(=O)(=O)NC4=NCCCCC4)c3)nc3ccccc3c2=O)cc1`, the z-score amounted to 0.908.

Turning to `CCn1cc(C(=O)O)c(=O)c2cnc(N3CCN(C(=O)Nc4ccccc4)CC3)nc21`, the z-score was -0.186.

In turn, `Cc1sc2nc(SCc3ccccc3)n(Cc3ccco3)c(=O)c2c1C` registered a z-score of 0.0771.

Regarding `COc1ccccc1NC(=O)CSc1nnc(-c2ccccc2)o1`, the z-score is -0.282.

`CC(C)C(=O)NC(c1ccco1)c1ccc2cccnc2c1O` (stereo not given): the z-score is -0.678.

In the case of `CN(C)c1nc(Oc2ccc(=O)[nH]n2)nc(N2CCCCC2)n1`, the z-score was -0.303.

In the case of `COc1ccccc1N1CCN(C(=O)c2c(-c3ccccc3)noc2C)CC1`, the z-score was -0.634.

For the compound `O=C(N1CCN(c2ccccc2)CC1)C1(c2cccs2)CCOCC1`, the z-score is -0.389.

`CCCC(=O)OCCNc1cc(SCCC(=O)OC)c2nonc2c1[N+](=O)[O-]`: the z-score was -0.658.

As to `CC12CCC(C(=O)N(NC(=O)c3cc(Cl)ccc3O)C1=O)C2(C)C` (stereo not given), the z-score came to 0.00208.

In the case of `Nc1c(C(=O)NCc2ccco2)nnn1Cc1ccccc1`, the z-score was -1.11.

As for `CC(=O)Nc1ccc(N2C(=O)CC(c3ccccc3)CC2=O)cc1`, the z-score was -0.815.

Compound `O=C(NC(=S)Nc1ccc(N2CCOCC2)cc1)c1ccc(Cl)cc1` returned a z-score of 0.272.

Compound `COc1oc(-c2ccccc2C)nc1C(F)(F)F` showed a z-score of 0.396.

In turn, `Cc1ccc(-c2nnc(-c3ccccc3)c(-c3ccccc3)n2)cc1` showed a z-score of 0.135.

For the compound `COc1ccc(C(=O)c2coc3ccc(O)c(CN(C)C)c23)cc1`, the z-score was -0.087.

For the compound `C/C(CC(=O)Nc1ccc(Cl)c(C(F)(F)F)c1)=N\NC(=O)c1cc2ccccc2cc1O`, the z-score is -0.301.

On to `CS(=O)(=O)Nc1ccc(C(=O)NCc2ccccn2)cc1`, for which the z-score came out at 0.287.

For the compound `COc1ccccc1N1CCN(C(CNC(=O)c2ccco2)c2cccnc2)CC1` (stereo not given), the z-score was 1.2.

Consider `C=CCn1c(COc2ccccc2)nnc1SCC(=O)Nc1ccc(S(N)(=O)=O)cc1`, for which the z-score is -1.17.

`COc1ccccc1OCC(=O)N(Cc1nc(-c2ccc(Cl)cc2)no1)C(C)C` displayed a z-score of 0.436.

In the case of `COc1cc(NS(=O)(=O)c2ccc(N=Cc3c(C)[nH]n(-c4ccccc4)c3=O)cc2)nc(OC)n1`, the z-score was -0.513.

With `COc1ccc(CCNC(=O)C2CCCN(c3nn4c(=O)cc(C)nc4s3)C2)cc1OC` (stereo not given), the z-score came out at 0.0747.

`CC1CN=C(N(C(=O)Nc2ccccc2)c2ccc(F)cc2)S1` (stereo not given): the z-score was -0.149.

`COc1ccc2c(c1)C(C)=CC(C)(C)N2C(=O)CN1C(=O)CCC1=O` returned a z-score of 0.17.

With `CC(=O)NC1=NC(=O)/C(=C/N2CCOCC2)S1`, the z-score came out at 0.342.

Consider `CC(C)C(=O)c1cc2c(cc1NC(=O)c1ccccc1)OCCO2`, for which the z-score is -0.135.

In turn, `Cc1nnc(SCC(C)C)[nH]c1=O` came in with a z-score of 0.0794.

In turn, `O=C(Cc1ccc([N+](=O)[O-])cc1)Nc1cccc(C(F)(F)F)c1` displayed a z-score of 0.433.

In the case of `Cc1ccc(CN2CCNC(=O)C2CC(=O)O)cc1` (stereo not given), the z-score was -0.134.

`O=C(NCc1ccco1)c1cc(-c2ccco2)on1` registered a z-score of 0.971.

As to `Cc1noc(NS(=O)(=O)c2ccc(N/C=C\C(=O)c3ccncc3)cc2)c1C`, the z-score was -0.456.

Regarding `CCC(=O)Nc1ccccc1N1CCN(S(C)(=O)=O)CC1`, the z-score was -0.277.

Regarding `CCOC(=O)C(C)Oc1ccc2c(CC)cc(=O)oc2c1C` (stereo not given), the z-score was active: -5.15.

As to `CCCNC(=O)c1ccccc1NC(=O)c1ccccc1N(C)S(C)(=O)=O`, the z-score came to 0.251.

`COc1ccc(OC)c(N=Cc2c(O)[nH]c3ccccc23)c1` came in with a z-score of 0.195.

For the compound `CCN(CC)c1ccc(/C=N/NC(=S)NCc2ccccc2)c(O)c1`, the z-score was -0.243.

In the case of `Nc1ccccc1SCc1cn2cccnc2n1`, the z-score was 0.462.

Take `CCOC(=O)CSc1nnc(CNc2ccc(F)cc2)o1`: the z-score was -0.628.

As for `CC(C)(C)C1CCC2(CC1)Nc1cccc3cccc(c13)N2`, the z-score is active: 4.88.

As to `O=C(CSc1ccc2ccccc2c1)NCc1cccs1`, the z-score is 0.0417.

In the case of `CCCn1c(SCC(=O)Nc2ccccc2N2CCOCC2)nc2c1c(=O)n(C)c(=O)n2C`, the z-score was -0.0247.

In turn, `CCOC(=O)C1C(=O)CC(C)(O)C(C(=O)OCC)C1c1ccccc1` (stereo not given) returned a z-score of 0.114.

In the case of `Cc1cccc(NC(=O)c2cnc3sccn3c2=O)n1`, the z-score was found to be 0.185.

As for `CCOC(=O)c1[nH]c(COC(=O)c2ccccc2NC(=O)c2ccco2)c(C(=O)OCC)c1C`, the z-score came out at 0.679.

Take `O=C(CCc1ccccc1)NC(NC(=S)Nc1ccc(Cl)cc1)C(Cl)(Cl)Cl` (stereo not given): the z-score came to 0.241.

Turning to `COc1ccc(N/C=C\C(=O)c2ccc3c(c2)OCO3)cc1OC`, the z-score is -0.826.

As to `CCC(C)(C)n1nnnc1CN1CCC(O)(c2cccc(C(F)(F)F)c2)CC1`, the z-score is -0.0568.

`c1ccc(Oc2ccc(-c3ccnc4nc(N5CCN(c6ccccc6)CC5)nn34)cc2)cc1`: the z-score is 0.0401.

`Cc1occc1C(=O)Nc1c(F)cc(F)cc1Br` showed a z-score of 0.255.

On to `Cc1ccc(S(=O)(=O)Nc2nc(C)c(NC(=O)Nc3ccc(Cl)cc3Cl)s2)cc1`, for which the z-score is -0.401.

On to `CC(=O)Nc1ccc(S(=O)(=O)NCC(=O)OCC(=O)N2CCc3ccccc32)cc1`, for which the z-score is -0.171.

`CCOCCCNC(=S)N1C2CCC1CC(NC(=O)NC13CC4CC(CC(C4)C1)C3)C2` (stereo not given): the z-score is -0.967.

For `Cc1ccccc1OCCSCc1nc2ccccc2[nH]1`, the z-score is -0.179.

`CCCCc1nc2sc3c(SCC(=O)NCc4ccco4)ncnc3c2c2c1CCC2`: the z-score is -0.00368.

`COC(=O)Nc1sc2c(c1C(=O)NC1CC1)CCCCCC2` registered a z-score of 0.0798.

For the compound `Cc1ccc(S(=O)(=O)n2cnc3ccccc32)cc1`, the z-score is 0.304.

As to `COc1ccc(-c2nc(C(N)=O)c3[nH]c(=O)n(-c4ccccc4OC)c3n2)c(OC)c1`, the z-score is -0.97.

`CCc1nnc(NC(=O)CSc2nc(C3CCCCC3)nc3ccccc23)s1` yielded a z-score of 0.127.

`Cn1c(SCC(=O)NC(C)(C)C)nnc1-c1cnccn1` had a z-score of 0.611.

As for `N=c1n(CCO)c2ccccc2n1Cc1ccccc1Cl`, the z-score is -0.391.

As for `CC(=O)Nc1nc2c(ncn2COCCOC(C)=O)c(=O)[nH]1`, the z-score was -0.00625.

`COc1cccc(Nc2cc(N3CCOCC3)c3nonc3c2[N+](=O)[O-])c1`: the z-score is 0.638.

Take `COc1ccc(OCC(=O)NNC(=O)c2cccnc2)cc1`: the z-score was -0.15.

As for `Cc1ccc(C(=O)NCCCc2ccccc2)s1`, the z-score amounted to 0.115.

As for `O=C(CSc1nc(N2CCCCC2)nc(N2CCCCC2)n1)NC1CCCCC1`, the z-score is -0.029.

With `CCc1nnc(NC(=O)Cn2nc(-c3ccc(OC)c(OC)c3)ccc2=O)s1`, the z-score stood at 0.2.

As to `Cn1c2c(c(=O)n(C)c1=O)C(c1ccc(Br)cc1)Nc1ccccc1O2` (stereo not given), the z-score is -1.44.

As for `COc1ccc(-c2cn3cccnc3n2)cc1F`, the z-score was -0.215.

Consider `O=C1N=C(N2CCOCC2)S/C1=C/c1cccs1`, for which the z-score is -0.0392.

Regarding `O=C(Nc1nnc(-c2cccs2)o1)c1ccco1`, the z-score was -0.203.

With `O=C(Nc1ccc(F)cc1)N(Cc1cccs1)Cc1cc2cc3c(cc2[nH]c1=O)OCO3`, the z-score is -0.158.

`O=C(c1csc2c1CCCC2)N1CCN(c2ccc(F)cc2)CC1` yielded a z-score of 0.178.

Turning to `O=P(Cc1ccccc1)(c1ccccc1)c1ccccc1`, the z-score is -0.059.

As to `O=C(C[n+]1cc(-c2ccccc2)n2c1CCC2)Nc1nc(-c2ccc(F)cc2)cs1`, the z-score was -0.13.

For the compound `COc1ccc(N(C(=O)Cn2cnc3ccccc32)C(C(=O)NC2CCCCC2)c2ccccc2)cc1` (stereo not given), the z-score is -0.87.

For `COc1ccccc1/C=N/Nc1nccnc1Cl`, the z-score was -0.0648.

Consider `O=C(Cc1ccc(-c2ccccc2)cc1)N1CCOCC1`, for which the z-score is -0.145.

On to `Cc1ccc2c(c1)sc1nc(=O)n(-c3ccc(Cl)cc3)c(=O)n12`, for which the z-score is -0.0321.

For `CCCOc1ccc(C(CC(=O)O)NC(=O)c2cccs2)cc1` (stereo not given), the z-score is -0.0701.

In the case of `Cc1[nH]n(-c2ccccc2)c(=O)c1C1(C(F)(F)F)C(=O)N(c2ccc(F)cc2)C2=C1C(=O)CC(C)(C)C2` (stereo not given), the z-score was -0.233.

As to `Cc1ccc(-c2cc(N)n3nc(-c4ccc(C)cc4)cc3n2)cc1`, the z-score is -0.0653.

The compound `Cc1cc(Cl)ccc1NC(=S)NCc1ccc(Cl)cc1` came in with a z-score of 0.0662.

In turn, `O=C(NCc1cccs1)C1CCC(CNS(=O)(=O)c2cccc3nsnc23)CC1` (stereo not given) had a z-score of 0.00195.

Consider `CCC(C)NC(=O)CCC(=O)Nc1ccc2nc(N3CCOCC3)cc(C)c2c1` (stereo not given), for which the z-score was -0.289.

As for `Cc1cccc(NC(=O)CCSc2nnc(Cc3ccccc3)o2)c1`, the z-score was -0.0112.

For the origin of these results see PubChem BioAssay AID488969 (Vanderbilt High Throughput Screening Facility, 2010).
